We go through 120 sequences from the supplement of paper PMC10126150.

Values marked as one replicate rest on one cluster of the flow cell; about a third of the high ones do not repeat.
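Further: ATP exposure 15 min at 22 °C before imaging.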

For the series, the system named is ATP. In words: switch fluorescence ratio, 500 uM ATP over buffer (Cy3 cluster intensity, sum of 5 cycles each) (fold (ratio)); higher = stronger signal-on switching upon ATP binding; sequences stand for … in TCGTCGGCAGCGTCAGATGTGTATAAGAGACAGTTTTTTTTTTTTTTTTTTTTTTTTT…TC. The settings on record: aptamer strand: ATP DNA aptamer (quencher-CACCTGGGGGAGTATTGCGGAGGAAGG + anchor), 100 nM annealed; ATP concentration: 500 uM; one replicate. In short, it runs like this: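 The quencher-labelled ATP aptamer, at 100 nM, was annealed to Cy3-labelled switching-strand clusters on a modified Illumina MiSeq flow-cell. The clusters were imaged in selection buffer, then after 15 min with 500 uM ATP at 22 °C, and this buffer/ATP cycle ran five times with NaOH stripping and re-annealing between runs. Per-cluster fluorescence ratios, summed target-cycle over summed buffer-cycle Cy3 intensity, were averaged per switch-domain sequence. Clusters outside 100-1000 RFU were excluded.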
With CCTGTTTTAG, the switch fluorescence ratio came to 1.03.
For TCAACGGTTG, the switch fluorescence ratio was found to be 0.977.
As for TACCTTATCA, the switch fluorescence ratio came out at 1.05.
In the case of TACATTAAAC, the switch fluorescence ratio was found to be 0.973.
In the case of GACGACACGG, the switch fluorescence ratio stood at 1.19.
As for ACTCTTGGGG, the figure is 0.992.
The figure for ATCGTCCATT is 0.993; for GGAATTATTC it is 1.03.
As for CTAAGGTGAA, the figure is 1.09.
Turning to CCGCCTTATG, the switch fluorescence ratio is 1.06.
With TGGTTGTATT, the switch fluorescence ratio worked out at 3.23.
On to TAAGATATCG, for which the switch fluorescence ratio was found to be 1.02.
On to CGCCAGCTGG, for which the switch fluorescence ratio was determined as 0.986.
As for CATACTACAC, the figure is 1.34; as for TTACCGGGA, 1.04.
Turning to GTATTGAAGC, the switch fluorescence ratio was 0.981.
As for CTCTCAGTTT, the figure is 0.999; as for TTGCGTCGCG, 0.976; as for AGATGAAAG, 1.01.
As for ATTTTTAAAG, the figure is 0.975; as for CAAAATTATC, 1.01; as for ACTAAGGGTT, 1.01.
As to ATAGCGTCTG, the switch fluorescence ratio stood at 1.03.
Turning to TTGTTGCGCA, the switch fluorescence ratio is 0.985.
The figure for AACAGGGGCG is 1.04; for GTGATT it is 0.997; for GCTAGTAGTA it is 0.985.
The figure for TTTGGTGGTG is 1.06; for TCGGTACCGA it is 1; for ATGGGCGCCG it is 0.998.
Take AATAGAAAGA: the switch fluorescence ratio was found to be 1.01.
As to ACACTTTCGA, the switch fluorescence ratio worked out at 1.06.
Consider CAGGTGGTAT, for which the switch fluorescence ratio was found to be 1.58.
As to TACTATAGCA, the switch fluorescence ratio worked out at 1.04.
For the sequence CACTCAAAGT, the switch fluorescence ratio was 1.02.
With TCGAACCTCT, the switch fluorescence ratio is 1.01.
Take GGCCATATCG: the switch fluorescence ratio stood at 0.971.
As for GTGATCTTCC, the switch fluorescence ratio amounted to 2.48.
On to AGAGGGATGC, for which the switch fluorescence ratio was 1.01.
The figure for TGCAGATTCA is 1.01.
In the case of GATGCCTTGG, the switch fluorescence ratio is 0.997.
On to AGCTTATACT, for which the switch fluorescence ratio came out at 2.57.
As for GAATTGGGAT, the figure is 1.03; as for ATAGCAATC, 4.15.
As for ATGTCATGTC, the figure is 0.983; as for AAGCTTCGTC, 1.17; as for AAAAGTGCAC, 1.06.
Consider AAAGGCAACA, for which the switch fluorescence ratio came out at 0.996.
For TTCTTTGCAG, the switch fluorescence ratio was 1.03.
As for CAGTGACCGA, the figure is 1.1; as for TCAGGCTCGC, 0.977; as for TAATTGAGGA, 1.01.
As to AAAGACGTTA, the switch fluorescence ratio stood at 1.
Consider GTATGTCGTA, for which the switch fluorescence ratio was determined as 0.954.
Take GCGATCCGTG: the switch fluorescence ratio was 1.03.
As to GTTTCCCCGC, the switch fluorescence ratio came out at 3.82.
On to TAGTAAGGCA, for which the switch fluorescence ratio was determined as 1.01.
For the sequence ATTCGGCGCT, the switch fluorescence ratio is 0.978.
The figure for CTCAAGAGGG is 0.987; for GGTACCGGTT it is 1.03.
In the case of ACCGTGCGGT, the switch fluorescence ratio came to 1.
Regarding GAGTGGGAAG, the switch fluorescence ratio was 1.
On to TCTGTGAAAG, for which the switch fluorescence ratio turned out to be 1.56.
As for GAGAAGCGGC, the figure is 0.982; as for GATGTTCTCT, 1.
Take GGGCAAAACG: the switch fluorescence ratio was found to be 0.986.
For the sequence TGTAGGTTGC, the switch fluorescence ratio was 0.949.
As for ATTGGTGGT, the switch fluorescence ratio was 1.06.
Take TCAGAGTTCA: the switch fluorescence ratio stood at 1.02.
With CAATGAACTC, the switch fluorescence ratio was determined as 1.01.
Regarding CGACATTG, the switch fluorescence ratio came out at 1.06.
On to ACAGTGGCCC, for which the switch fluorescence ratio turned out to be 0.974.
The figure for TTGTCTGGCG is 0.993; for CTAGGACTCT it is 0.981.
Turning to CATCAATGCT, the switch fluorescence ratio was found to be 1.36.
As to TAGTTGACAG, the switch fluorescence ratio stood at 0.968.
For TTAGTTAGTC, the switch fluorescence ratio stood at 1.27.
Take CTCTTTTTTC: the switch fluorescence ratio was determined as 0.95.
Take ATTATCTAGA: the switch fluorescence ratio is 0.998.
For CATAGACGGC, the switch fluorescence ratio was found to be 0.986.
For GAGTGCGT, the switch fluorescence ratio is 1.
With TGAACATTCG, the switch fluorescence ratio is 1.17.
With TTTATGCATA, the switch fluorescence ratio came to 0.951.
For CCACAAATGT, the switch fluorescence ratio came to 1.03.
On to ACTAATGAGA, for which the switch fluorescence ratio is 1.
As to TAGGTTTTCA, the switch fluorescence ratio worked out at 1.01.
As for AAAAGATCTC, the figure is 1.01; as for GCGGGGAATC, 0.99; as for CCTCGTGGCA, 1.66.
The figure for AATTCGCTTT is 1; for CCAATCTTAG it is 0.979.
Regarding TCCAGAGACC, the switch fluorescence ratio worked out at 1.04.
Consider TCAAGCTAAT, for which the switch fluorescence ratio was found to be 1.06.
In the case of ACGATAAGTG, the switch fluorescence ratio was found to be 1.
Take ATGGTCCTAT: the switch fluorescence ratio was 1.06.
As for GCGTAAGGAA, the figure is 0.971; as for TAGAAGCCTA, 0.957.
With TTTAGGGCAG, the switch fluorescence ratio was 0.953.
As for TCGCATTTAG, the figure is 1.6; as for AAATTACT, 1.05; as for ACAAGTGCAT, 1.01.
As for ATCGCTTCTC, the figure is 1.1; as for GTGGGATGCT, 1.01; as for TGGCGCGAAT, 1.01.
On to GGTTTATTA, for which the switch fluorescence ratio amounted to 1.02.
The figure for GGATTTTTGC is 1.03; for GGATATCGGA it is 0.969.
Turning to GATACCAGAA, the switch fluorescence ratio amounted to 1.01.
On to TACGGTGAAA, for which the switch fluorescence ratio turned out to be 0.996.
TACCCTCAAC: the switch fluorescence ratio was 1.58.
As for AGTTATATGC, the figure is 0.971; as for TTTAAGACTT, 0.955; as for GATTATACGG, 0.977.
Consider AATTCGAGGG, for which the switch fluorescence ratio was found to be 0.992.
As for GAAGCAGGT, the figure is 1.02; as for AAACCGGTAC, 2.35; as for CTGGATCGAA, 1.01.
As to CAAGGATTTG, the switch fluorescence ratio came to 0.997.
As for TCAATTTAAA, the switch fluorescence ratio was determined as 1.01.
As for TCTGTACGCG, the figure is 1.05.
